In PubChem BioAssay (Tox21):
“And” between values parts separate entries of the source, which are not always exact repeats. Identical values can stand only once. The shares of active, inactive and inconclusive entries below differ from those in the screen. Potencies of inconclusive entries are doubtful fits and often do not repeat. The source holds several records for some structures; these can differ, active in one and inactive in another. The source made the active and inactive calls. Calls come from the whole dose curve; as a rule, active = well fitted inhibition curve with a large enough effect in the repeat runs; inconclusive = weak or mixed curves; inactive = no such curve, though single readings can be large or run the other way.
% is set by controls: 0 for no effect and ±100 for the full control effect; potency is the fitted concentration of half-maximal effect; tags give direction and shape of the fitted curve.

What follows are compounds tested against Cytochrome P450 2C19 (Homo sapiens) (UniProt P33261) (assay: Cytochrome P450 Family 2 Subfamily C Member 19 (CYP2C19) small molecule antagonists: luciferase reporter qHTS assay (AID 1671197; note: nearly all actives have a fitted effect of over 65% in size)). Conditions: P450-Glo CYP2C19 enzyme, luciferin luminescence, 1 h; series mostly up to 115 µM; activity change, negative = inhibition: at the top concentration.
Sequence of UniProt P33261 (P33261 whole entry, looked up): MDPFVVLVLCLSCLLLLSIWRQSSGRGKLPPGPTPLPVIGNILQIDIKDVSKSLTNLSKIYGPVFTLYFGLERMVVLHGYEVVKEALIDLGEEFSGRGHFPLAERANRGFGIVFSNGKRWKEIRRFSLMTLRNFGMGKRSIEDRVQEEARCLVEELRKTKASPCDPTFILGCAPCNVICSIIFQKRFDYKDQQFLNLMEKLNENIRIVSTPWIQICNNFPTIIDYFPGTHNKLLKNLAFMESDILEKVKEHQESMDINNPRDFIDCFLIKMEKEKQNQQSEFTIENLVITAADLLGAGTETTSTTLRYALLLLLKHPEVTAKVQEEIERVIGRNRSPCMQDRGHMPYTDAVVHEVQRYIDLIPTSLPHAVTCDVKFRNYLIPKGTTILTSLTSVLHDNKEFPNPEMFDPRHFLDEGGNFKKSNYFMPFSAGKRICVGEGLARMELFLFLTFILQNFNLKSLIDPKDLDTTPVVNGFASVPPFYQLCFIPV
Method in brief: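 P450-Glo CYP2C19 screening system; proluciferin substrate; DMSO compound stocks; 10 min RT preincubation; NADPH regeneration, 1 h at 37C; luciferin detection reagent, 20 min RT; luminescence as RLU.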
With CSc1nnc(C(C)(C)C)c(=O)n1N the Potency was “inactive”.
With O=C(O)COc1nc(Cl)c(Cl)cc1Cl the Potency was inconclusive: 81.6 µM [inhibitor, single point].
In the case of CCCCC(CC)COC(=O)c1ccccc1C(=O)OCC(CC)CCCC (stereo not drawn), the Potency is reported as active: 14.2 µM.
With Cc1cccc(C)c1NC(=O)CN1CCCC1=O the Potency was inconclusive: 91.8 µM [inhibitor, single point].
In the case of [CH3][Hg][Cl], the Potency is reported as inconclusive: 89.1 µM [inhibitor, single point].
In the case of Clc1nc(Cl)nc(Cl)n1, the Potency is reported as “inactive and inconclusive: 89.4 µM [inhibitor, single point]”.
For O=[N+]([O-])c1ccccc1, the Potency was “inactive”.
With N#CN=C1SCCN1Cc1ccc(Cl)nc1 the “activity change, negative = inhibition” value was inactive: -33.3%.
For CC(=O)/C=C/c1ccccc1, the Potency was inconclusive: 89.4 µM [inhibitor, single point].
O=C([O-])c1ccccn1.O=C([O-])c1ccccn1.O=C([O-])c1ccccn1.[Cr+3] was tested, and the Potency was inconclusive: 40 µM [inhibitor, full curve].
For CCc1cccc(CC)c1N(COC)C(=O)CCl, the Potency was active: 9.71 µM and active: 71 µM.
For C=CC(=O)OCCCCOC(=O)C=C, the Potency was inconclusive: 71 µM [inhibitor, single point].
For C[C@H]1O[C@@H](O[C@H]2[C@@H](O)C[C@H](O[C@H]3[C@@H](O)C[C@H](O[C@H]4CC[C@@]5(C)[C@H](CC[C@@H]6[C@@H]5CC[C@]5(C)[C@@H](C7=CC(=O)OC7)CC[C@]65O)C4)O[C@@H]3C)O[C@@H]2C)C[C@H](O)[C@@H]1O, the Potency was inconclusive: 56.8 µM [inhibitor, single point] and inactive.
With CCCCCCC1CCOC1=O (stereo not drawn) the Potency was active: 39.9 µM.
For C/C(=N\NC(=O)Nc1cc(F)cc(F)c1)c1ncccc1C(=O)O, the Potency was inconclusive: 89.4 µM [inhibitor, single point] and inconclusive: 28.3 µM [inhibitor].
With CCOC(=O)C1(c2ccccc2)CCN(CCc2ccc(N)cc2)CC1 the Potency was inconclusive: 17.4 µM [inhibitor, single point].
In the case of Cc1cccc(N)c1N, the Potency is reported as active: 38.6 µM and active: 35.6 µM.
With Clc1ccccc1Cl the Potency was inconclusive: 80.5 µM [inhibitor, single point].
In the case of FC(Cl)(Cl)C(F)(Cl)Cl, the “activity change, negative = inhibition” value is reported as inactive: 18.9%.
With CCCCCCCCCCCCCCn1cc[n+](C)c1 the Potency was inconclusive: 89.3 µM [inhibitor, single point].
In the case of Nc1c(Cl)c(F)nc(OCC(=O)O)c1Cl, the Potency is reported as inconclusive: 89.4 µM [inhibitor, single point].
CCC(C)(C)C(=O)OC1=C(c2ccc(Cl)cc2Cl)C(=O)OC12CCCCC2 was tested, and the Potency was inconclusive: 89.4 µM [inhibitor, single point].
For [O]=[Cr](=[O])([OH])[O][Cr](=[O])(=[O])[OH], the Potency was inconclusive: 90.2 µM [inhibitor, single point].
CCCCCCCCCCCCn1cc[n+](C)c1 was tested, and the Potency was inconclusive: 79.7 µM [inhibitor, single point] and inconclusive: 89.3 µM [inhibitor, single point].
For COC(=O)c1ccccc1N, the Potency was inconclusive: 34.4 µM [inhibitor, partial curve, poor fit].
In the case of Oc1cccc(Cl)c1, the Potency is reported as inconclusive: 88.3 µM [inhibitor, single point].
O=C/C=C/c1ccccc1 was tested, and the Potency was “inactive and inconclusive: 64 µM [inhibitor, partial curve]”.
For CC1CCCC1, the Potency was active: 17.6 µM.
With c1cc[c]([Hg][c]2ccccc2)cc1 the Potency was active: 22.4 µM.
Nc1ccc([As](=O)(O)O)cc1 was tested, and the Potency was inconclusive: 38.8 µM [inhibitor, single point].
In the case of O=C(Cl)OCc1ccccc1, the Potency is reported as inconclusive: 90.2 µM [inhibitor, single point].
Cc1cc(SCc2sc(-c3ccc(C(F)(F)F)c(F)c3)nc2C)ccc1OCC(=O)O was tested, and the “activity change, negative = inhibition” value was inactive: -13.1%.
In the case of [CH3][Sn]([CH3])([Cl])[Cl], the Potency is reported as inconclusive: 1.81 µM [inhibitor, single point].
In the case of COC(=O)c1cc(Oc2ccc(Cl)cc2Cl)ccc1[N+](=O)[O-], the Potency is reported as active: 2.52 µM.
For CC1(C)CON(Cc2ccccc2Cl)C1=O, the Potency was active: 10 µM.
C=Cc1cccc(CCl)c1 was tested, and the Potency was inconclusive: 183 µM [inhibitor, single point].

The compounds below were run against Cytochrome P450 2C9 (Homo sapiens) (UniProt P11712) (assay: Cytochrome P450 Family 2 Subfamily C Member 9 (CYP2C9) small molecule antagonists: luciferase reporter qHTS assay (AID 1671198; note: nearly all actives have a fitted effect of over 50% in size)). Conditions: P450-Glo CYP2C9 enzyme assay, luciferin luminescence; series mostly up to 115 µM; activity change, negative = inhibition: at the top concentration.
Sequence of UniProt P11712 (P11712 whole entry, looked up): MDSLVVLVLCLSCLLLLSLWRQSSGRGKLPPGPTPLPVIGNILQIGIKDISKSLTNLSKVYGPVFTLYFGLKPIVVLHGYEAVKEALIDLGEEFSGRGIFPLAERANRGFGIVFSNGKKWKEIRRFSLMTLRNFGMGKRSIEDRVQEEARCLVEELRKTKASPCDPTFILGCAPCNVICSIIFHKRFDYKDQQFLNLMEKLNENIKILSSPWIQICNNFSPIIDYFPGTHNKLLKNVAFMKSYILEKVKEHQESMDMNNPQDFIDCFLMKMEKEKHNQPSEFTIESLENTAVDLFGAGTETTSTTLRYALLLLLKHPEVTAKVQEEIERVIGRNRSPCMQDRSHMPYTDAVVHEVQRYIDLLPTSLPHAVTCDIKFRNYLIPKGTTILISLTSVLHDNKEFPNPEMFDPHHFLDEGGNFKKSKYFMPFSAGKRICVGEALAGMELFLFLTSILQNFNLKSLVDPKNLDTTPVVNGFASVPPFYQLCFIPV
Method in brief: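 CYP2C9 activity was measured with a P450-Glo proluciferin substrate. Enzyme–substrate mix was held with compound for 10 min at room temperature, then NADPH regeneration solution was added for 1 h at 37C. Luciferin product was read as luminescence.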
With CSc1nnc(C(C)(C)C)c(=O)n1N the Potency was inconclusive: 78.9 µM [inhibitor, single point].
In the case of CCCCC(CC)COC(=O)c1ccccc1C(=O)OCC(CC)CCCC (stereo not drawn), the Potency is reported as active: 9.47 µM.
With [CH3][Hg][Cl] the Potency was inconclusive: 89.1 µM [inhibitor, single point].
With Clc1nc(Cl)nc(Cl)n1 the Potency was inconclusive: 89.4 µM [inhibitor, single point].
O=[N+]([O-])c1ccccc1 was tested, and the Potency was inconclusive: 71 µM [inhibitor, partial curve].
N#CN=C1SCCN1Cc1ccc(Cl)nc1 was tested, and the Potency was inconclusive: 89.4 µM [inhibitor, partial curve, poor fit].
In the case of O=C([O-])c1ccccn1.O=C([O-])c1ccccn1.O=C([O-])c1ccccn1.[Cr+3], the Potency is reported as inconclusive: 89.6 µM [inhibitor, single point].
C=CC(=O)OCCCCOC(=O)C=C was tested, and the Potency was inconclusive: 71 µM [inhibitor, partial curve].
In the case of C[C@H]1O[C@@H](O[C@H]2[C@@H](O)C[C@H](O[C@H]3[C@@H](O)C[C@H](O[C@H]4CC[C@@]5(C)[C@H](CC[C@@H]6[C@@H]5CC[C@]5(C)[C@@H](C7=CC(=O)OC7)CC[C@]65O)C4)O[C@@H]3C)O[C@@H]2C)C[C@H](O)[C@@H]1O, the Potency is reported as inconclusive: 28.5 µM [inhibitor, partial curve, poor fit] and inactive.
In the case of CCOC(=O)C1(c2ccccc2)CCN(CCc2ccc(N)cc2)CC1, the Potency is reported as inconclusive: 24.5 µM [inhibitor, partial curve].
Cc1cccc(N)c1N was tested, and the Potency was active: 34.4 µM and active: 35.6 µM.
In the case of Clc1ccccc1Cl, the Potency is reported as inconclusive: 22.7 µM [inhibitor, full curve, poor fit].
For CCCCCCCCCCCCCCn1cc[n+](C)c1, the Potency was inconclusive: 88.4 µM [inhibitor, single point] and inconclusive: 79.6 µM [inhibitor, partial curve].
[O]=[Cr](=[O])([OH])[O][Cr](=[O])(=[O])[OH] was tested, and the Potency was inconclusive: 35.9 µM [inhibitor, partial curve] and inconclusive: 44.7 µM [inhibitor, partial curve, poor fit].
For CCCCCCCCCCCCn1cc[n+](C)c1, the Potency was inconclusive: 89.4 µM [inhibitor, single point].
With COC(=O)c1ccccc1N the Potency was inconclusive: 68.6 µM [inhibitor, partial curve, poor fit] and inconclusive: 89.4 µM [inhibitor, single point].
With Oc1cccc(Cl)c1 the “activity change, negative = inhibition” value was inactive: 30.8%.
O=C/C=C/c1ccccc1 was tested, and the Potency was inconclusive: 90.4 µM [inhibitor, partial curve, poor fit] and inconclusive: 71 µM [inhibitor, partial curve, poor fit].
Cc1cc(SCc2sc(-c3ccc(C(F)(F)F)c(F)c3)nc2C)ccc1OCC(=O)O was tested, and the Potency was active: 35.6 µM.
In the case of [CH3][Sn]([CH3])([Cl])[Cl], the Potency is reported as “inactive”.
COC(=O)c1cc(Oc2ccc(Cl)cc2Cl)ccc1[N+](=O)[O-] was tested, and the Potency was active: 7.1 µM.
CC1(C)CON(Cc2ccccc2Cl)C1=O was tested, and the Potency was inconclusive: 20 µM [inhibitor, partial curve].
